Source: PubChem BioAssay AID1745853 (National Center for Advancing Translational Sciences (NCATS), 2022)
Some of the results follow. The main result of the screen is listed elsewhere. These columns were measured beside it and carry no call.

What was measured:
Assay in all cases: Primary Screen for Target Class Profiling of Small Molecule Inhibitors of Methyltransferases
[1] = target: Glycine N-methyltransferase (Homo sapiens) (UniProt Q14749); conditions: purified enzyme, MTase-Glo SAH luminescence; measured here: GNMT inhibition; at 40 µM; stronger effect = lower value
Summary of the method: (§1)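 Each enzyme was reacted with SAM and its substrate, with compounds tested once at 40 uM; SAH formed was read by MTase-Glo luminescence.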

[2] = target: Guanidinoacetate N-methyltransferase (Homo sapiens) (UniProt Q14353); conditions: purified enzyme, MTase-Glo SAH luminescence; measured here: GAMT inhibition; at 40 µM; stronger effect = lower value
Summary of the method: as §1

[3] = target: Histamine N-methyltransferase (Homo sapiens) (UniProt P50135); conditions: purified enzyme, MTase-Glo SAH luminescence; measured here: HNMT inhibition; at 40 µM; stronger effect = lower value
Summary of the method: as §1

[4] = target: Nicotinamide N-methyltransferase (Homo sapiens) (UniProt P40261); conditions: purified enzyme, MTase-Glo SAH luminescence; measured here: NNMT inhibition; at 40 µM; stronger effect = lower value
Summary of the method: as §1

[5] = target: Phenylethanolamine N-methyltransferase (Homo sapiens) (UniProt P11086); conditions: purified enzyme, MTase-Glo SAH luminescence; measured here: PNMT inhibition; at 40 µM; stronger effect = lower value
Summary of the method: as §1
% is scaled to controls: 0 for no effect and ±100 for the full control effect.

SMILES | activity change, negative = inhibition [1] [%] | activity change, negative = inhibition [2] [%] | activity change, negative = inhibition [3] [%] | activity change, negative = inhibition [4] [%] | activity change, negative = inhibition [5] [%]
Cn1nccc1Nc1nccc(-c2ccn([C@H](CO)c3ccc(Cl)c(F)c3)c(=O)c2)n1 | 2.16 | 6.2 | -2.34 | -23.3 | 3.94
CCc1ccc(NC(=O)c2cc3n(n2)CC(C)(C(=O)NC2CCCCC2)N(C)C3=O)cc1 (stereo not given) | 0.273 | 0 | 8.97 | 10.7 | 5.09
NCC(=O)N1CCC2(CC1)CN([S+](=O)([O-])c1ccccc1)CCO2 | -2.35 | -4.72 | 0.016 | -11.2 | 2.23
O=[S+]([O-])(c1cccc(C(F)(F)F)c1)N1CCc2nc(-c3ccccc3)nc(-c3ccc(Cl)cc3)c2C1 | -1.93 | -6.85 | -1.34 | -14.7 | 6.21
C=C1C(=O)O[C@@H]2C[C@@]3(C)CCC[C@H](C)C3=C[C@H]12 | -0.784 | -3.2 | 5.11 | -13.1 | -4.51
CC(C)CCN1CCC2(COc3ccccc3C(=O)N2)C1 (stereo not given) | -7.44 | -7.61 | -8.97 | -10.7 | -9.85
CN1CCN(Cc2cccc(OCC(O)CN3CCOCC3)c2)CC1(C)C (stereo not given) | -3.38 | -2.35 | -5.48 | -3.36 | -17.7
C/C=C(\C)[C@@H]1C(C)=C[C@@H]2[C@H]([C@@H]1/C=C/C=C/C(=O)O)[C@@H](C)CC[C@@H]2O | 0.256 | 3.38 | 6.79 | -36.4 | -5.11
CCC(=O)N1CCc2c(C(=O)NCC(C)C)cccc21 | -3.23 | -1.67 | -2.98 | -5.63 | -4.14
CCN(CC1CCCN(CCc2cccc(OC)c2)C1)C(=O)CSC (stereo not given) | -2.1 | -1.84 | -6.13 | -9.89 | 9.16
CC1(C(=O)NC2CCCC2)Cn2c(cc3ccccc32)C(=O)N1Cc1cccs1 (stereo not given) | -0.439 | 4.5 | 4.51 | -9.79 | 0.229
Nc1ncnc2c1c(-c1ccc(Cl)cc1)nn2-c1cccc(-c2cnnn2Cc2cccc(-c3ccccc3)c2)c1 | 5.58 | -24 | 8.45 | -33.7 | -17.3
CCC1c2ccc(C)n2CCN1C(=O)Nc1ccccc1C(=O)OC (stereo not given) | -1.5 | -1.57 | 8.09 | 5.34 | -1.42
O=C(Nc1ccccc1C(=O)Nc1ccc(CCO)cc1)c1ccc([N+](=O)[O-])cc1 | -7.16 | -2.09 | 5.58 | -17.2 | 2.44
O=S(=O)(NCCc1ccccc1)c1ccc2[nH]c3c(c2c1)CCCC3 | -6.77 | 1.28 | -22.9 | -13.1 | -3.73
CN1C(=O)c2cc3ccccc3n2CC1(C)C(=O)NCC(=O)NCCCc1ccccc1 (stereo not given) | 0.293 | 0.201 | 11.3 | 4.85 | 6.38
O=C(CCn1cccn1)NC1CC(=O)N(Cc2cccc3ccccc23)C1 (stereo not given) | -6.35 | -9.44 | -4.71 | -13.5 | -8.44
